# Source: the supplement of paper PMC3334620
# Whole data set: some 33,000 sequences, median “E-score (-0.5 to 0.5)” near -0.012, cut for the highest 2% near 0.27. This is one part of the list.
# Target: T1, Vhr1 (UniProt P40522)
# T1 sequence: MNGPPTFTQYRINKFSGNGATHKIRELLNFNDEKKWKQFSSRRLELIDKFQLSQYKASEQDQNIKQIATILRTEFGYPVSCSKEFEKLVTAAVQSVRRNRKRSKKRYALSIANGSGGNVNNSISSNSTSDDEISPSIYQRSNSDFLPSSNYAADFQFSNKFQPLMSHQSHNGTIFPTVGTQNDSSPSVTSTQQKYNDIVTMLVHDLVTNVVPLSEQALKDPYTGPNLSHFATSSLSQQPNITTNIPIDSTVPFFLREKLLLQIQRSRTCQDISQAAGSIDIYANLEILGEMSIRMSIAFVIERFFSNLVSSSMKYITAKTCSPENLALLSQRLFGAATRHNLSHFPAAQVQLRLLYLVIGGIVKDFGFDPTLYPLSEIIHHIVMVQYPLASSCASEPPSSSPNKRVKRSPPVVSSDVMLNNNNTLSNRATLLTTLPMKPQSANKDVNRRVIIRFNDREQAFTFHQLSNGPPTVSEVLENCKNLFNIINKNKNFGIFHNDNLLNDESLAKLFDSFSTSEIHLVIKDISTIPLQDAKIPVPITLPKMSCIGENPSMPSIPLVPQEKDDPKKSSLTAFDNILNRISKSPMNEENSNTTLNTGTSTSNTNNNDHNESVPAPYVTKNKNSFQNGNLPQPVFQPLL
# Experiment: PBM E-score (8-mer binding enrichment) (E-score (-0.5 to 0.5)); higher = stronger / more preferred TF binding; most listed sequences are background and not binding sites
# Details: protein concentration: 200 nM; construct: GST-full length
# Procedure, shortened: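 For each ungapped eight-base word taken together with its reverse complement, the Universal PBM Analysis Suite assigned an E-score. Binding data came from GST-tagged yeast transcription factors, applied at about 100-200 nM, on universal all-10-mer Agilent arrays made double-stranded by primer extension. Fluorescent anti-GST marked bound protein, and scans were normalised with masliner.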
row,Sequence,PBM E-score
1,GGATTCAA,-0.0312
2,CAGCATAA,0.0735
3,ACATTGCT,-0.0486
4,TGGGGAAA,0.0155
5,CGGTCCTA,-0.246
6,AATTCTAA,-0.0726
7,CTTGTTGA,0.107
8,AGTAGACT,-0.0463
9,GAATACTA,0.178
10,ATAGGTTA,0.0642
11,GACGTTCC,-0.294
12,TAGCCACA,0.023
13,TCTTCCAA,-0.19
14,GACGAGGC,-0.11
15,AACACCTT,-0.0237
16,ATTCCCCG,0.0917
17,CATTTGAG,-0.0627
18,CACTGCTG,-0.0508
19,AATTTCAT,-0.137
20,CGGGACCA,-0.11
21,AAAAAGCG,-0.121
22,ACCGACAA,-0.034
23,GGGGCTCA,-0.0835
24,CACTTACA,0.0795
25,CCCTATCC,-0.0379

row,Sequence,PBM E-score
1,AAAGAAAT,-0.254
2,GCTGTCGA,-0.115
3,CAACAGTA,0.12
4,AATATTCA,0.157
5,AAGTCCCA,-0.221
6,CTGAGTGA,0.215
7,AGTAGATC,-0.0434
8,GAGTTCCC,-0.109
9,AGAGTATA,-0.093
10,ATGAGCCG,-0.00802
11,ACCTTCTG,0.167
12,AGAGGAAT,0.016
13,GATGCGTA,0.0279
14,CAGTTCTC,-0.208
15,CAAGCTTG,-0.21
16,ATGCCCTG,-0.0849
17,AGACTTTC,-0.378
18,CTATCTCA,0.0772
19,AAACCCCC,-0.198
20,ACATAATC,0.25
21,GTGTACTA,0.119
22,GTCGGAAA,0.022
23,GCGCCGCC,0.156
24,ATTCTACG,0.109
25,GTAAGGTA,-0.04

row,Sequence,PBM E-score
1,ACAGCGCC,0.057
2,AAGACCTA,0.00767
3,ACAGGTCA,0.00796
4,CTCGGGTA,-0.00897
5,CGCCCGTC,0.216
6,AATACGGG,-0.047
7,ACCTTGGG,0.0306
8,AGGTGGCG,-0.0512
9,TGTGTGAA,0.148
10,ACTTTCCG,-0.256
11,AGCAATAC,-0.0388
12,ATCAATTA,0.137
13,AATCTTAT,0.0262
14,AACATGTA,0.138
15,TCTACAAA,0.063
16,AATGTAGT,0.0873
17,ACTTGAGA,-0.0874
18,CACAAATC,0.0828
19,CATTGGTC,-0.0115
20,AACGAAAG,-0.204
21,GGGGTGGA,0.0544
22,AAAGTTCC,-0.282
23,GTTTTCGA,-0.0299
24,CACCTCTC,-0.117
25,CTAAGATA,0.0776

row,Sequence,PBM E-score
1,CAGTTCGG,-0.0416
2,ATGTGTCG,0.29
3,CGTGAGCC,0.0956
4,GAGCCGGC,-0.00127
5,TCATGAAA,-0.0216
6,AGTTTATG,-0.0791
7,ATCGTCGC,-0.0805
8,CAGCGCGG,0.122
9,ATCCTCCG,-0.0227
10,GACAATAA,0.0432
11,CTAGTAAC,0.172
12,CGACACTC,0.207
13,ACCTCCTC,-0.188
14,CGCATCGC,-0.194
15,GAATCTCC,0.00162
16,CCCTTCTC,-0.178
17,CTTGTGTA,0.0727
18,CCGAAAGA,0.0175
19,CGACGGAG,0.0734
20,ATTGATGG,0.0912
21,CACCGGTG,-0.0803
22,CCTACGAA,0.0133
23,GAAGGTCA,0.0375
24,CCGTTCAC,-0.164
25,AGACCCCT,-0.216

row,Sequence,PBM E-score
1,ATCAATGA,0.0575
2,GGCCCACC,0.0435
3,CGGACGAA,0.133
4,ACGGGCCC,-0.171
5,GGACTTGA,-0.249
6,ATTCTTGG,0.0954
7,ATTAAACC,0.0183
8,GACCCGCA,0.109
9,CCTACTCC,0.00407
10,GCGCTCCA,-0.0425
11,ACGTACTA,0.164
12,CGATTCTC,0.0478
13,GAGGGGAA,-0.00828
14,AGTTTGTC,-0.0447
15,ATCGCTAC,-0.00539
16,ACGGTATG,0.0197
17,AGTTACCG,0.0322
18,TGAACCAA,0.174
19,AAATCAAA,-0.315
20,ATCTATAG,-0.096
21,CTGATCCA,0.188
22,ACATCAAG,0.0485
23,CGCGCTCC,0.232
24,AACTCCGG,0.00164
25,GAGTGCTA,-0.0187

row,Sequence,PBM E-score
1,GCGTATAA,0.115
2,GTAGACAA,-0.042
3,CATATTCG,0.0798
4,ACATCTGG,-0.00989
5,GAAGGAGC,-0.368
6,CTCCACGA,-0.0659
7,GAATTGAC,-0.109
8,ATGCCTTG,-0.0907
9,CCAGGGCG,0.0297
10,AATATAGG,0.173
11,TCGAACAA,0.019
12,CGTGGGAC,0.0659
13,CTGGCTCA,0.28
14,GCGGGTCC,-0.00354
15,GCTATTCC,-0.0794
16,CGTCCTTA,-0.0511
17,AAAGAGCG,-0.0326
18,AACAAGCC,-0.108
19,GCCCCACA,0.0562
20,CACAAGTA,0.0964
21,AACCGCTC,0.0198
22,AGAGATCG,-0.11
23,AGAAGCAA,0.0863
24,AGGATTGG,-0.0691
25,CCCAACCG,-0.00458

row,Sequence,PBM E-score
1,ACGTGTCT,0.0218
2,CCGAGGAA,-0.101
3,AATCCACT,0.065
4,GCCTCGCA,0.00196
5,CATGTAAG,-0.0398
6,CTAAGGCC,-0.281
7,GGAGAGTA,-0.187
8,CACTTATA,-0.121
9,TCTTAGAA,-0.252
10,ACTGCAAG,-0.0323
11,CTGCCAGC,-0.132
12,CCAGAGTA,0.0867
13,ACAATACG,-0.00306
14,CGACTTCA,-0.0111
15,ACACACTG,0.163
16,ACCATCGC,0.164
17,ACTTTTGA,-0.211
18,GCGTGTTA,-0.0428
19,CCACTTTA,0.166
20,CCAAATTA,-0.00099
21,AAACCGAA,-0.119
22,CCCTAACG,-0.259
